The results in this text go back to patent US20240124563A1 (NANJING ZAIMING PHARMACEUTICAL, published 2024).

Experiment [1] has as its target T1, human MSLN full-length protein, recombinant, on CHO-K1 or HEK293T cells (human, UniProt Q13421 296-598).
T1 construct: The background says that the precursor is cleaved by furin to the mature membrane form; also called hMSLN; CHO-K1-hMSLN-2C8
In words: competitive FACS on CHO-K1-human MSLN-2C8 cells vs Biotin-Tab142; competitor at 0.0064 nM.

Experiment [2] deals with T2, human MSLN-FL-his protein (human, UniProt Q13421 296-580).
T2 construct: Made in HEK293E cells, purified on nickel column; also called hMSLN-FL-his; not shown: histidine tag
Kind of experiment: competitive ELISA on MSLN-FL-His; other antibody: Tab108 (R3) (3.m14). (In general: In an ELISA, binding on a coated surface is turned into a signal by an enzyme label.)

Experiment [3] concerns the target T2, human MSLN-FL-his protein. In words: competitive ELISA on MSLN-FL-His; other antibody: NB148-27 (3.m3).
In experiment [4] the target is T3, human MSLN protein endogenously expressed on tumor cells (Hela, OVCAR3) (human, UniProt Q13421 296-598).
T3 construct: whole, on cells
In words: FACS, OVCAR3 cells, antibody 2 nM. On the technique in general: Flow cytometry measures light scatter and fluorescence of single cells or particles in a stream.

In experiment [5] the target is T2, human MSLN-FL-his protein. In words: competitive ELISA on MSLN-FL-His; other antibody: NB148-13 (3.m1).
The target of experiment [6] is T2, human MSLN-FL-his protein. Kind of experiment: competitive ELISA on MSLN-FL-His; other antibody: Tab107 (C) (1.m4).
Experiment [7] addresses T2, human MSLN-FL-his protein. In words: competitive ELISA on MSLN-FL-His; other antibody: NB148-35 (3.m4).
For experiment [8], the target named is T1, human MSLN full-length protein, …. In words: competitive FACS on CHO-K1-human MSLN-2C8 cells vs Biotin-Tab142; competitor at 4 nM.
The target in experiment [9] is T2, human MSLN-FL-his protein. Kind of experiment: SPR, antibody captured on Protein A chip, MSLN-FL-his injected, 1:1 model. A general note: Surface plasmon resonance follows binding to a sensor surface in real time, without labels.
The target of experiment [10] is T2, human MSLN-FL-his protein. Kind of experiment: competitive ELISA on MSLN-FL-His; other antibody: NB149-95 (3.m11).
In experiment [11] the target is T2, human MSLN-FL-his protein. In words: competitive ELISA on MSLN-FL-His; other antibody: Tab142 (R1) (3.m16).
The target in experiment [12] is T1, human MSLN full-length protein, …. Kind of experiment: competitive FACS on CHO-K1-human MSLN-2C8 cells vs Biotin-Tab142; competitor at 0.16 nM.
The target is the same in experiment [13]. In words: FACS, HEK293T-hMSLN-B8 cells, antibody 20 nM.
The target of experiment [14] is T2, human MSLN-FL-his protein. Kind of experiment: competitive ELISA on MSLN-FL-His; other antibody: NB148-88 (3.m6).
Experiment [15] concerns the target T1, human MSLN full-length protein, …. In words: competitive FACS on CHO-K1-human MSLN-2C8 cells vs Biotin-Tab142; competitor at 0.8 nM.
Experiment [16] has the same target. In words: competitive FACS on CHO-K1-human MSLN-2C8 cells vs Biotin-Tab142; competitor at 100 nM.
For experiment [17] the target is unchanged. Kind of experiment: competitive FACS on CHO-K1-human MSLN-2C8 cells vs Biotin-Tab142; competitor at 20 nM.
Experiment [18] addresses T4, chimeric human MSLN-R3 / chicken MSLN-R1-2 protein on HEK293T cells (clone A5) (chicken; human).
T4 construct: range 327-514; Human R1-R2 replaced by chicken R1-R2; also called HEK293T-chickR1-2/hR3-A5; HEK293T-hR3/chickR1-2-A5
Kind of experiment: FACS, HEK293T-hR3/chickR1-2-A5 cells, antibody 20 nM.

For experiment [19], the target named is T2, human MSLN-FL-his protein. Kind of experiment: competitive ELISA on MSLN-FL-His; other antibody: NB149-34 (3.m8).
In experiment [20] the target is T1, human MSLN full-length protein, …. Kind of experiment: FACS, HEK293T-hMSLN-B8 cells, antibody 0.2 nM.
In experiment [21] the target is T2, human MSLN-FL-his protein. In words: competitive ELISA on MSLN-FL-His; other antibody: NB148-46 (3.m5).
Experiment [22] deals with T1, human MSLN full-length protein, …. In words: competitive FACS on CHO-K1-human MSLN-2C8 cells vs Biotin-Tab142; competitor at 0.00128 nM.

For orientation: Kd means the concentration at which binding is half-saturated. Broadly, the koff is the first-order rate constant of dissociation. High values mean fast dissociation, low ones slow dissociation. Usually kon stands for the second-order rate constant of association. A higher kon goes with fast association.

T2 sequence (Q13421 other isoform, or with tags, fused parts or gaps): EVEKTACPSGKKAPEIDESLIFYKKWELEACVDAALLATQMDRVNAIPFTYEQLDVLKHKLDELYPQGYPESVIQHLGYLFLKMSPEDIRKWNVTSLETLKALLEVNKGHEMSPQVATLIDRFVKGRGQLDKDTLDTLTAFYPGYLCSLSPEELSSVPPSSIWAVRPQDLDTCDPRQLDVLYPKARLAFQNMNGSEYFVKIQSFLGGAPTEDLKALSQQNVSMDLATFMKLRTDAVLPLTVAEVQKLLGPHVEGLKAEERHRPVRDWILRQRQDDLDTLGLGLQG

B1: NB149-70 VHH-hFc (Fc fusion)
chain: QVQLVESGGGLVQPGGSLRLSCAASGSIFSGNAVAWYRQAPGKEREAVAVITRDGDTKYADSVKGRFTISRYNAKNIAYLQMNSLKPEDTAVYYCNTARGAAVDSWGQGTQVTVSS[human IgG1 Fc with changes not written out]
With B1, the “MFI of Biotin-Tab142” value came out at 42100 in experiment [1]; 33400 in experiment [8]; 41000 in [12]; 40400 in [15]; 20200 in experiment [16]; 25100 in experiment [17]. Further, the “MFI of Biotin-Tab142” value in [22] stood at 40600. The inhibition rate in experiment [2] was found to be 3%; in [3], 67%; in experiment [5] it was 29%; in experiment [6], 4%; in experiment [7], 23%; in experiment [10] it was 52%. For the same molecule, the inhibition rate stood at 42% in experiment [11], 26% in [14], 60% in experiment [19] and 64% in experiment [21]. The MFI turned out to be 6440 in experiment [4], 22800 in experiment [13], 73 in experiment [18] and 1430 in experiment [20]. In experiment [9], this molecule registered an equilibrium dissociation constant (Kd) of 0.795 nM. The same molecule had a koff in experiment [9] of 0.00116 s⁻¹. Besides, in [9], the kon was determined as 1.46e+06 M⁻¹ s⁻¹.

B2: NB148-25 VHH-hFc (Fc fusion)
chain: QVQLVESGGGLVQAGGSLRLSCAASGSTFGRIVMRWYRQAQGKQREWVASIYDSGSTSYSDPVQGRFTISRDNARNTVYLQMNSLRPADTAVYYCNLGTALSSYWGQGTQVTVSS[human IgG1 Fc with changes not written out]
Turning to B2, the “MFI of Biotin-Tab142” value amounted to 42200 in experiment [1]; 41100 in experiment [8]; 41500 in [12]; 41800 in experiment [15]; 41600 in experiment [17]; 42100 in [22]. Further, the inhibition rate in experiment [2] is 70%; in experiment [3], 48%; in experiment [5] it was 89%; in experiment [6], -36%; in experiment [7], 90%; in experiment [10] it was 34%. Moreover, the inhibition rate was -28% in experiment [11], 89% in experiment [14], 46% in experiment [19] and 56% in experiment [21]. In addition, the MFI in experiment [4] stood at 7740; in [13], 29400; in experiment [18] it was 73; in [20], 784. In addition, the Kd in experiment [9] was determined as 1.59 nM. For the same molecule, the koff in experiment [9] is 0.000358 s⁻¹. For the same molecule, the kon in experiment [9] amounted to 224000 M⁻¹ s⁻¹.

B3: NB149-34 VHH-hFc (Fc fusion)
chain: QLQLVESGGGLVQPGGSLRLSCAASGSVNSITAMGWYRQGPGNERELVAVITDRGRASYADSVKGRFAISMDNDKHTVYLQMDSLKPEDTAVYYCNAHRRTWPHPGDYWGQGTQVTVSS[human IgG1 Fc with changes not written out]
Regarding B3, the “MFI of Biotin-Tab142” value in [1] was 42500; in experiment [8], 31500; in experiment [12], 41700; in [15] it was 39700; in experiment [16], 17200; in experiment [17] it was 24600. Also, the “MFI of Biotin-Tab142” value in experiment [22] is 40800. Also, the inhibition rate was 25% in experiment [2]; 56% in [3]; -7% in experiment [5]; 15% in experiment [6]; -12% in experiment [7]; 62% in [10]. In addition, the inhibition rate was 65% in experiment [11], -14% in experiment [14], 66% in [19] and 53% in experiment [21]. Further, the MFI in [4] was 7150; in experiment [13] it was 23500; in experiment [18], 73; in experiment [20], 847. The molecule also yielded a Kd in experiment [9] of 0.216 nM. This molecule also showed a koff in [9] of 0.000471 s⁻¹. Further, the kon in experiment [9] came out at 2.18e+06 M⁻¹ s⁻¹.

B4: NB149-95 VHH-hFc (Fc fusion)
chain: QVQLVESGGGLVQAGGSLRLSCTASESGFSANYMGWYRQEAPGKERELVATINRFGSTNYADSVKGRFTISRDNAKNTVYLQMNSLKSEDTGVYYCRIMRPGNWYWGQGTQVTVSS[human IgG1 Fc with changes not written out]
B4: the “MFI of Biotin-Tab142” value is 42300 in experiment [1]; 29400 in experiment [8]; 41400 in experiment [12]; 38000 in experiment [15]; 20500 in experiment [16]; 21400 in experiment [17]. For the same molecule, the “MFI of Biotin-Tab142” value in [22] came out at 42200. The inhibition rate in [2] is 2%; in experiment [3], 39%; in experiment [5] it was 8%; in experiment [6], -2%; in [7], 1%; in [10] it was 13%. In addition, the inhibition rate in experiment [11] turned out to be 9%; in experiment [14], 3%; in experiment [19], 17%; in experiment [21], 41%. Further, the MFI in experiment [4] amounted to 8930; in experiment [13], 28000; in [18], 95; in experiment [20] it was 678. The same molecule came in with a Kd in experiment [9] of 0.0234 nM. The molecule further came in with a dissociation rate constant (koff) in experiment [9] of 3.24e-05 s⁻¹. The molecule also came in with a kon in experiment [9] of 1.39e+06 M⁻¹ s⁻¹.
